Some of the results follow. The main result of the screen is listed elsewhere. These columns were measured beside it and carry no call. Compounds called inactive in the main read-out are mostly missing here.

48 compounds from PubChem BioAssay AID651582 (Sanford-Burnham Center for Chemical Genomics, 2012) can be followed below.

The assay in a line: inhibitors of triacylglycerol accumulation, primary screen, cell-based, uHTS, fluorescence, H9c2 (AID 651582). The conditions noted are these: H9c2 cells, Nile Red lipid (TAG) fluorescence; measured here:; at 12.5 µM; cells loaded with 200 µM oleic acid.
With `COc1ccc(-c2csc(NC(=O)CC(C)C)n2)cc1`, the DAPI nuclei signal change (viability), lower = more cytotoxic amounted to 3.23%.
Consider `COc1ccccc1-c1cc(NC=O)c2ncc(-c3cccc(C(=O)N(C)C)c3)n2c1`, for which the DAPI nuclei signal change (viability), lower = more cytotoxic was -41.4%.
Next, `COc1ccccc1N1CCN(C(=O)C2c3ccccc3Oc3ccccc32)CC1`: -39.3%; `CCCCNC(=O)c1cnc(Cc2c[nH]c3ccccc23)c(I)c1`: -43.9%; `Cc1ccc(S(=O)(=O)c2ccc([N+](=O)[O-])o2)cc1`: -42.2%.
Then `Cc1ccc2nc(N(CCCN(C)C)C(=O)c3ccc(S(=O)(=O)N4CCc5ccccc5C4)cc3)sc2c1`, with -32.4%; and `COC(=O)C1=C(C)N(Cc2ccccc2)C(=NCc2ccccc2)N[C@H]1c1cccc(F)c1`, with -7.9%.
On to `N/C(=N\c1nc2ccccc2o1)NC(=O)c1ccc(F)cc1`, for which the DAPI nuclei signal change (viability), lower = more cytotoxic was -46.9%.
Consider `Cc1cc2[nH]c3c(c[n+](C)c4ccccc34)c2cc1C`, for which the DAPI nuclei signal change (viability), lower = more cytotoxic was -37.5%.
Then `C#CCN(C[C@H]1[C@H](OC(=O)NCC2CCCCC2)[C@H](OC(=O)NCC2CCCCC2)C[C@@H](C(=O)OC)[C@H]1C(=O)OC)S(=O)(=O)c1ccc(C)cc1`, with -13.9%; and `CCOC(=O)C1=C(C)N(C[C@@H]2CC[C@@H](Cc3ccc(-c4ccccc4)cc3)O2)C(=O)NC1c1cccc2ccccc12` (stereo partly drawn), with -11.7%.
Next, `CCNC1=C(Cl)C(=O)c2ccccc2C1=O`: -40.5%; `CN(C)c1ccc(NC(=O)CSc2nc3ccccc3c(=O)n2C2CCCCC2)cc1`: -2.54%.
Then `CC1CCCN(C(=O)c2ccc3c(c2NCCO)C(=O)c2ccccc2C3=O)C1` (stereo not drawn), with -3.47%.
Regarding `C=CCn1c(N)c(C(=O)Nc2ccccc2)c2nc3ccccc3nc21`, the DAPI nuclei signal change (viability), lower = more cytotoxic worked out at 18.9%.
Turning to `CCN(C[C@H]1N[C@@](CC)(C(=O)OC)[C@H]2C(=O)N(Cc3ccccc3)C(=O)[C@@H]12)S(=O)(=O)c1ccc(C(C)(C)C)cc1`, the DAPI nuclei signal change (viability), lower = more cytotoxic is -11%.
Next, `CO/N=C\CC(=O)Nc1ccc(Oc2ccccc2)cc1`: -42.7%; `C=C1CCN(C(C)C(=O)OC)S(=O)(=O)c2ccccc21` (stereo not drawn): -29.6%.
Next, `CCCCCC(/C=N/Nc1ccc(S(=O)(=O)N2CCOCC2)cc1[N+](=O)[O-])=C\c1ccccc1`: -17.6%; `CCN(CC)CCNC(=O)C(Cl)=C1C(Cl)=C(Cl)C(Cl)=C1Cl`: -48.1%.
On to `Nc1c(C(=O)NC2CCCC2)c2nc3ccccc3nc2n1/N=C/c1cccnc1`, for which the DAPI nuclei signal change (viability), lower = more cytotoxic was 43.3%.
Next, `CCCc1[nH]n(-c2ccc([N+](=O)[O-])cc2)c(=O)c1C=NCCc1c[nH]c2ccccc12`: -12.4%; `COc1ccc(C2=Nn3c(nnc3-c3ccccc3OC)SC2)cc1OC`: -39.1%.
Next, `c1cc(C2CCCCC2)ccc1Oc1nc(N2CCOCC2)nc(N2CCOCC2)n1`: -6%; `COc1ccc(NC(=O)C2Cc3c(-c4cccc(C(C)=O)c4)ccnc3O2)cc1` (stereo not drawn): -47.8%; `O=C1N[C@@H](Cc2ccccc2)COC(=O)[C@@H](Cc2ccc(F)cc2)CC/C=C/C[C@@H]1CC(=O)N(CCO)Cc1ccccc1`: -22.4%.
Next, `CCOc1cc(C(=O)N/N=C/c2cn(-c3ccccc3)nc2-c2cc3ccccc3o2)cc(OCC)c1OCC`: -3.56%; `CCCc1nc2oc3c(NCCCN(C)C)ncnc3c2c2c1CCCC2`: -25.3%.
As to `Cc1ccc(Nc2nc(N)nc(CCl)n2)c(C)c1`, the DAPI nuclei signal change (viability), lower = more cytotoxic was -40.2%.
In the case of `Cc1cccc(C(=O)N[C@H](C(=O)Nc2ncc(C)s2)C(C)C)c1`, the DAPI nuclei signal change (viability), lower = more cytotoxic is -43.5%.
Next, `COc1ccc(/C=C/C(=O)c2cc(F)ccc2OC(=O)c2ccccc2OC)cc1OC`: -41.1%; `CCN(CC)c1ccc(N=Cc2ccc([N+](=O)[O-])o2)cc1`: -11%.
Next, `Cc1cccc2sc(NC(=O)CN(C)S(=O)(=O)c3ccc(Br)s3)nc12`: 3.08%.
Next, `Cc1ccc(Sc2ccc(NC(=O)CCl)cc2)cc1C`: -40.5%; `COc1cc(C(=O)N2CCN(c3cccc(C)c3C)CC2)cc(OC)c1OC`: -32.1%.
`CC(=O)NC(c1ccc(C)cc1)c1cc(Cl)c2cccnc2c1O` (stereo not drawn): the DAPI nuclei signal change (viability), lower = more cytotoxic was -15.1%.
Then `COc1ccc2[nH]c3c(c2c1)CCN1C(=O)C(CC(=O)NCc2cccc(C(F)(F)F)c2)C[C@H](C(=O)N2CCCCC2)[C@@]31CCc1ccccc1` (stereo partly drawn), with -35.4%.
Take `O=C(C#Cc1ccccc1)c1ccccc1`: the DAPI nuclei signal change (viability), lower = more cytotoxic was -43%.
Next, `CCOC(=O)N1CCC(N2Cc3cccc(C(=O)Nc4ccc(CC)cc4)c3C2=O)CC1`: -0.254%; `NC(c1csc(Nc2ccc(C(=O)c3ccccc3)cc2)n1)C1CCCCC1` (stereo not drawn): 10.5%; `CCN(CC)CCNc1cc(C)nc2c1C(=O)C(=O)C=C2N1CCCCC1`: -45.4%.
Next, `COc1ccc(NS(=O)(=O)c2cccc(C(=O)N/N=C/c3cn(-c4ccccc4)nc3-c3ccccc3)c2)cc1`: -8.56%; `CCc1nn2c(N3CCOCC3)cc(C)nc2c1-c1ccc(F)cc1`: -2.93%.
Then `COc1ccc(-n2ccnc2SCC(=O)NC2CCCC2)c(OC)c1`, with -40.1%; and `COc1ccc2[nH]c3c(c2c1)CCN1C(=O)C(CC(=O)NCC24CC5CC(CC(C5)C2)C4)C[C@H](C(=O)N2CCOCC2)[C@@]31CCC1CCCC1` (stereo partly drawn), with -12.2%.
For `CC(=O)Nc1cccc(-c2ccnc3c2CC(C)(C(=O)NCc2ccc(N(C)C)cc2)O3)c1` (stereo not drawn), the DAPI nuclei signal change (viability), lower = more cytotoxic is -27.6%.
Then `c1ccc(-[n+]2nc(Nc3cccc4ccccc34)sc2-c2c3ccccc3cc3ccccc23)cc1`, with 2.33%; and `CCN(CC)CCNC(=O)c1cc2c(-c3ccc(Cl)cc3)nn(C)c2s1`, with 67.6%.
